The results in this text go back to paper PMC12820563, “FoxP3 forms a head-to-head dimer in vivo and stabilizes its multimerization on adjacent microsatellites”.

This is one part of the list.

The target of this test is T1, MBP-FoxP1dN (Mus musculus, UniProt P58462 326-579).
T1 sequence: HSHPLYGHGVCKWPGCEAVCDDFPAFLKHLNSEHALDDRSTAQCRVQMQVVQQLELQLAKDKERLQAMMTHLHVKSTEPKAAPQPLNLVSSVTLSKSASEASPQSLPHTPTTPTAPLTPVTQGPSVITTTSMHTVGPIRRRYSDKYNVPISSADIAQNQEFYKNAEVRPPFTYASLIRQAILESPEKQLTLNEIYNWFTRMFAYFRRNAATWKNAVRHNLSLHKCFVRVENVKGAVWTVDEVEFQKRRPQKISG
Kind of test: PD-seq (MBP pull-down with sequencing); 20 mM Tris-HCl pH 7.5, 100 mM NaCl, 1.5 mM MgCl2, 0.4 uM protein, 0.1 uM dsDNA library, 30 min, room temperature, amylose pull-down; high values mean tight binding. Particulars: protein: recombinant; tags: His6-MBP; chain copies: 2; dsDNA, one strand shown. An outline of the steps: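 In Tris pH 7.5 buffer with NaCl and MgCl2, 0.4 µM His6-MBP-tagged mouse FoxP3 or FoxP1 fragment lacking the N-terminus, from E. coli, met 0.1 µM Klenow-filled double-stranded degenerate DNA library for 30 min at room temperature. Three washes on amylose resin followed capture of the complexes, then proteinase K release of DNA, PCR barcoding and Illumina sequencing. Binding is taken as pooled-replicate reads-per-million enrichment of pull-down relative to input.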
Take “GATGATTGTTCTCCCAGCTGATGAATTTAGGGCGTCGAGTAAACAAATTTTCCTAATCTTTCTGTTCAAGCGCCATCTAC”: the binding signal was 0.959 RPM ratio (pull-down/input).

As to “GATGATTGTTCTCCCAGCTGATGAATTGCGGGGTTCGAGTAAACAAATTTTCCTAATCTTTCTGTTCAAGCGCCATCTAC”, the binding signal is 1.02 RPM ratio (pull-down/input).

On to “GATGATTGTTCTCCCAGCTGATGAATTTCTTCTCTCGAGTAAACAAATTTTCCTAATCTTTCTGTTCAAGCGCCATCTAC”, for which the binding signal is 1.01 RPM ratio (pull-down/input).

Regarding “GATGATTGTTCTCCCAGCTGATGAATTCTGTCATTCGAGTAAACAAATTTTCCTAATCTTTCTGTTCAAGCGCCATCTAC”, the binding signal is 1.08 RPM ratio (pull-down/input).

Turning to “GATGATTGTTCTCCCAGCTGATGAATTGGGCGGCTCGAGTAAACAAATTTTCCTAATCTTTCTGTTCAAGCGCCATCTAC”, the binding signal was 0.76 RPM ratio (pull-down/input).

For the sequence “GATGATTGTTCTCCCAGCTGATGAATTCCGTACGTCGAGTAAACAAATTTTCCTAATCTTTCTGTTCAAGCGCCATCTAC”, the binding signal was 0.878 RPM ratio (pull-down/input).

As to “GATGATTGTTCTCCCAGCTGATGAATTGGGATTGTCGAGTAAACAAATTTTCCTAATCTTTCTGTTCAAGCGCCATCTAC”, the binding signal is 1.02 RPM ratio (pull-down/input).

With “GATGATTGTTCTCCCAGCTGATGAATTCCGACAGTCGAGTAAACAAATTTTCCTAATCTTTCTGTTCAAGCGCCATCTAC”, the binding signal was 0.827 RPM ratio (pull-down/input).

Turning to “GATGATTGTTCTCCCAGCTGATGAATTTTACTTGTCGAGTAAACAAATTTTCCTAATCTTTCTGTTCAAGCGCCATCTAC”, the binding signal was 0.907 RPM ratio (pull-down/input).

In the case of “GATGATTGTTCTCCCAGCTGATGAATTGGAAAATTCGAGTAAACAAATTTTCCTAATCTTTCTGTTCAAGCGCCATCTAC”, the binding signal was 0.938 RPM ratio (pull-down/input).

In the case of “GATGATTGTTCTCCCAGCTGATGAATTTCGCGTTTCGAGTAAACAAATTTTCCTAATCTTTCTGTTCAAGCGCCATCTAC”, the binding signal is 0.925 RPM ratio (pull-down/input).

With “GATGATTGTTCTCCCAGCTGATGAATTCAAAGTATCGAGTAAACAAATTTTCCTAATCTTTCTGTTCAAGCGCCATCTAC”, the binding signal is 0.966 RPM ratio (pull-down/input).

Regarding “GATGATTGTTCTCCCAGCTGATGAATTCTCTGCTTCGAGTAAACAAATTTTCCTAATCTTTCTGTTCAAGCGCCATCTAC”, the binding signal is 0.882 RPM ratio (pull-down/input).

With “GATGATTGTTCTCCCAGCTGATGAATTACATAGCTCGAGTAAACAAATTTTCCTAATCTTTCTGTTCAAGCGCCATCTAC”, the binding signal is 1 RPM ratio (pull-down/input).

In the case of “GATGATTGTTCTCCCAGCTGATGAATTTTGCTCCTCGAGTAAACAAATTTTCCTAATCTTTCTGTTCAAGCGCCATCTAC”, the binding signal is 0.907 RPM ratio (pull-down/input).

“GATGATTGTTCTCCCAGCTGATGAATTGGGGTCCTCGAGTAAACAAATTTTCCTAATCTTTCTGTTCAAGCGCCATCTAC”: the binding signal was 0.772 RPM ratio (pull-down/input).

With “GATGATTGTTCTCCCAGCTGATGAATTCTCTCGGTCGAGTAAACAAATTTTCCTAATCTTTCTGTTCAAGCGCCATCTAC”, the binding signal was 0.774 RPM ratio (pull-down/input).

In the case of “GATGATTGTTCTCCCAGCTGATGAATTCACCTTATCGAGTAAACAAATTTTCCTAATCTTTCTGTTCAAGCGCCATCTAC”, the binding signal was 0.876 RPM ratio (pull-down/input).

Take “GATGATTGTTCTCCCAGCTGATGAATTAGATATATCGAGTAAACAAATTTTCCTAATCTTTCTGTTCAAGCGCCATCTAC”: the binding signal is 1.03 RPM ratio (pull-down/input).

Turning to “GATGATTGTTCTCCCAGCTGATGAATTGCGGCGATCGAGTAAACAAATTTTCCTAATCTTTCTGTTCAAGCGCCATCTAC”, the binding signal was 1.04 RPM ratio (pull-down/input).

With “GATGATTGTTCTCCCAGCTGATGAATTCAAAGGTTCGAGTAAACAAATTTTCCTAATCTTTCTGTTCAAGCGCCATCTAC”, the binding signal is 0.815 RPM ratio (pull-down/input).

Take “GATGATTGTTCTCCCAGCTGATGAATTTAATCATTCGAGTAAACAAATTTTCCTAATCTTTCTGTTCAAGCGCCATCTAC”: the binding signal is 1.04 RPM ratio (pull-down/input).

In the case of “GATGATTGTTCTCCCAGCTGATGAATTCCCCATCTCGAGTAAACAAATTTTCCTAATCTTTCTGTTCAAGCGCCATCTAC”, the binding signal was 0.782 RPM ratio (pull-down/input).

As to “GATGATTGTTCTCCCAGCTGATGAATTCTATAGGTCGAGTAAACAAATTTTCCTAATCTTTCTGTTCAAGCGCCATCTAC”, the binding signal is 0.795 RPM ratio (pull-down/input).

“GATGATTGTTCTCCCAGCTGATGAATTCTGCCACTCGAGTAAACAAATTTTCCTAATCTTTCTGTTCAAGCGCCATCTAC”: the binding signal was 0.947 RPM ratio (pull-down/input).

In the case of “GATGATTGTTCTCCCAGCTGATGAATTATAGGAGTCGAGTAAACAAATTTTCCTAATCTTTCTGTTCAAGCGCCATCTAC”, the binding signal was 0.95 RPM ratio (pull-down/input).

For the sequence “GATGATTGTTCTCCCAGCTGATGAATTAGACGTCTCGAGTAAACAAATTTTCCTAATCTTTCTGTTCAAGCGCCATCTAC”, the binding signal is 0.823 RPM ratio (pull-down/input).

Take “GATGATTGTTCTCCCAGCTGATGAATTGTCCGAGTCGAGTAAACAAATTTTCCTAATCTTTCTGTTCAAGCGCCATCTAC”: the binding signal was 0.906 RPM ratio (pull-down/input).

With “GATGATTGTTCTCCCAGCTGATGAATTCGCTGTATCGAGTAAACAAATTTTCCTAATCTTTCTGTTCAAGCGCCATCTAC”, the binding signal is 1.04 RPM ratio (pull-down/input).

On to “GATGATTGTTCTCCCAGCTGATGAATTAAGGCTTTCGAGTAAACAAATTTTCCTAATCTTTCTGTTCAAGCGCCATCTAC”, for which the binding signal is 0.96 RPM ratio (pull-down/input).

On to “GATGATTGTTCTCCCAGCTGATGAATTTACCTGGTCGAGTAAACAAATTTTCCTAATCTTTCTGTTCAAGCGCCATCTAC”, for which the binding signal is 1.12 RPM ratio (pull-down/input).
